Experimental data published in patent US20200362022A1.

Biological target: Fc receptors of THP-1 cells (primarily CD32 (FCγRII) and CD64 (FCγRI))
Test: cell-based or functional assay

- EC50 of cytokine induction in THP-1 cells, fold over HuPT-113D IgG1 (II) (times higher than the IgG1): < 30
B1: HuPT-113D IgG4 (II) (antibody)
heavy: QVQLVQSGAEVKKPGASVKVSCKASGYTFTSYWIHWVRQAPGQGLEWIGVIDPSDSYTRYNQKFKGRVTMTVDTSTSTAYMELRSLRSDDTAVYYCTTWEVDYWGQGTTVTVSSASTKGPSVFPLAPCSRSTSESTAALGCLVKDYFPEPVTVSWNSGALTSGVHTFPAVLQSSGLYSLSSVVTVPSSSLGTKTYTCNVDHKPSNTKVDKRV[… human IgG4 Fc with S228P (EU numbers) …]
light: DIVMTQSPLSLPVTPGEPASISCRSSQSLVHSDGNTYLHWYLQKPGQSPQLLIYKVSNRFSGVPDRFSGSGSGTDFTLKISRVEAEDVGVYYCSQSTHVPWTFGGGTKVEIKRTVAAPSVFIFPPSDEQLKSGTASVVCLLNNFYPREAKVQWKVDNALQSGNSQESVTEQDSKDSTYSLSSTLTLSKADYEKHKVYACEVTHQGLSSPVTKSFNRGEC
